From US20170342119A1 (ALTOR BIOSCIENCE, published 2017)

T1: IL-15 βγ receptors on 32Dβ cells (UniProt P14784 27-551; P34902 23-369)
T1 sequence (looked up) 1: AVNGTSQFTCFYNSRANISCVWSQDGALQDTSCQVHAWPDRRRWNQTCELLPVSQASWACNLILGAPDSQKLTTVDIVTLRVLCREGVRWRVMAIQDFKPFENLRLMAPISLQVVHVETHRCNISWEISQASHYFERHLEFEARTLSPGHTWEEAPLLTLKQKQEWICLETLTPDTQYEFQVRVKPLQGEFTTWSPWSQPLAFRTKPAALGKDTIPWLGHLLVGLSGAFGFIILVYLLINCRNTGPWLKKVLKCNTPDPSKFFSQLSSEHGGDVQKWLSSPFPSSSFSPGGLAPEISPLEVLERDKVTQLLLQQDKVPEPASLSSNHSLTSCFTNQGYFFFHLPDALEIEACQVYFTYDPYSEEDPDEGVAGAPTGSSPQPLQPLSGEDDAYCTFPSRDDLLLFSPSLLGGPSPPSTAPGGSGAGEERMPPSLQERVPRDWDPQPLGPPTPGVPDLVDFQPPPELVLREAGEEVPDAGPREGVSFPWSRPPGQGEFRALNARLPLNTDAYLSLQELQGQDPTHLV
T1 sequence (looked up) 2: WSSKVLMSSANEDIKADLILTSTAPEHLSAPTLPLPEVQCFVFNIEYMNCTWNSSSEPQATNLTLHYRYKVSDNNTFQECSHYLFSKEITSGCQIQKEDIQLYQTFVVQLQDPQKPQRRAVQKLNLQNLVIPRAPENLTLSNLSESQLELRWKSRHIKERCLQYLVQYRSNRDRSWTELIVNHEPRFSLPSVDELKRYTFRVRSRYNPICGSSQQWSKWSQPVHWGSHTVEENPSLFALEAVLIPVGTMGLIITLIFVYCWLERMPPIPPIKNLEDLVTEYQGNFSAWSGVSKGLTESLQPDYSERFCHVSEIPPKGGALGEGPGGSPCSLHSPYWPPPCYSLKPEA


Molecular target: T1, IL-15 βγ receptors on 32Dβ cells
Assay: cell-based or functional assay

Binder	32Dβ cell proliferation (WST-1), EC50 [nM]	relative IL-15 activity compared to ALT-803 [fold]
soluble anti-CD20 scAb/huIL-15N72D:anti-CD20 scAb/huIL-15RαSu/huIgG1 Fc complex (Fc fusion) chain 1: QIVLSQSPAILSASPGEKVTMTCRASSSVSYIHWFQQKPGSSPKPWIYATSNLASGVPVRFSGSGSGTSYSLTISRVEAEDAATYYCQQWTSNPPTFGGGTKLEIKSGGGGSGGGGSGGGGSQVQLQQPGAELVKPGASVKMSCKASGYTFTSYNMHWVKQTPGRGLEWIGAIYPGNGDTSYNQKFKGKATLTADKSSSTAYMQLSSLTSEDSAVYYCARSTYYGGDWYFNVWGAGTTVTVSA[about 120 residues omitted] chain 2: QIVLSQSPAILSASPGEKVTMTCRASSSVSYIHWFQQKPGSSPKPWIYATSNLASGVPVRFSGSGSGTSYSLTISRVEAEDAATYYCQQWTSNPPTFGGGTKLEIKSGGGGSGGGGSGGGGSQVQLQQPGAELVKPGASVKMSCKASGYTFTSYNMHWVKQTPGRGLEWIGAIYPGNGDTSYNQKFKGKATLTADKSSSTAYMQLSSLTSEDSAVYYCARSTYYGGDWYFNVWGAGTTVTVSAITCPPPMSVEHADIWVKSYSLYSRERYICNSGFKRKAGTSSLTECVLNKATNVAHWTTPSLKCIR[human IgG1 Fc omitted]	0.889	~60
ALT-803 (IL-15N72D:IL-15RαSuFc complex) (Fc fusion) chain 1: [about 120 residues omitted] chain 2: ITCPPPMSVEHADIWVKSYSLYSRERYICNSGFKRKAGTSSLTECVLNKATNVAHWTTPSLKCIR[human IgG1 Fc omitted]	0.014	
